Sequences and labels used below:
B1: chr3:125012942:125013043:-|CDS|ENSG00000173706|msi1|FALSE|bound_elsewhere (ssRNA)
RNA: GGGAGUUCUACAGUCCGACGAUCGCCUCUUAUGACCACUCCUGGCACCCUGUCAAGCACAGCAUCUCUGGUCACUGGCCCUAUAGCCGUACAGACUACAGCUGGAAAACAGCUCUCGCUGACCCAUCCUGAAAUACUAGUUCCCAACAGAGGAUUGAGCAUCA
B2: chr8:116854276:116854437:-|CDS|ENSG00000164754|unk|total|mutant (ssRNA)
RNA: GGGAGUUCUACAGUCCGACGAUCAGGAAGCUAAUUGUUGACAGUGUCAAAGAGUUGGACCGCAAGACAAUCCGAGCCCAACUCCGUGAUUAUUCAGAUAUUGUUACUACUUUGGAUCUGGCACCGCCCACCAAGAAAUUGAUGCAACAGAGGAUUGAGCAUCA
B3: chr7:73597181:73597713:-|CDS|ENSG00000009950|control|control|control (ssRNA)
RNA: GGGAGUUCUACAGUCCGACGAUCGCCCAGAGGCAAGCCCCCCGCCCCAUCCCCUAGGGGACAGAAAGCCAGCCCCCCUACCUUAGCCCCUGCCACUGCCAGUCCCCCCACCACUGCGGGGAGCAACAACCCCUGCCUCACACACAACAGAGGAUUGAGCAUCA
B4: chr7:93099512:93101327:-|three_prime_utr|ENSG00000205413|control|control|control (ssRNA)
RNA: GGGAGUUCUACAGUCCGACGAUCUCUCAGUACCCAUUUAAUUUUUUUGGACUCAAGAUCUAUGCUUUAAACCGGCAAGGUUAUAGAUACAGCCUCUAGCUCUUCAGAUCUGUACAUGCAGUAUUUAAUUUCCUCUUAAACAUGCAACAGAGGAUUGAGCAUCA
B5: ENSG00000168795:stop:overlap|stop_codon|ENSG00000168795|stop_codon|NA|stop_codon (ssRNA)
RNA: GGGAGUUCUACAGUCCGACGAUCAGCACUCAAAGACUACCUGCCUGCGCUGGCAGAGCAGCAAUCUUCCCAGCACUUUGCUCUAGCUGUUUGUCCUUACAAGACAACGCUGAGGCCAGUUGUCAGACUGAAUUUCUUUUGGUACAACAGAGGAUUGAGCAUCA
B6: chr1:229660051:229660152:+|3pUTR|ENSG00000135763|msi1|total|mutant (ssRNA)
RNA: GGGAGUUCUACAGUCCGACGAUCCUCAUUCACCGUCUCAGUUACCCAGAUAACCUCGGUUGUCACCUUGGAGUAUCUUGUUGCCGUCCCUUUACUAUGUGUAUGUAUACCGAUGUGCAUAUAAAUAUAUACCGCCGCUAAAUUCAACAGAGGAUUGAGCAUCA
B7: chr19:4409044:4409156:+|CDS|ENSG00000167670|unk|FALSE|unique (ssRNA)
RNA: GGGAGUUCUACAGUCCGACGAUCCUGUCAUGUGGGUUCUGACAUAGACUUUAGACCGAAACUUGUCAACGGGAAGGGUCCCUUAGAUAACUUUUUAAGAAAUAGAAUCGAAACCAGUAUUGGCCAGAGCACAGUCAUCAUUGACAACAGAGGAUUGAGCAUCA
B8: ENSG00000006432:stop:overlap|stop_codon|ENSG00000006432|stop_codon|NA|stop_codon (ssRNA)
RNA: GGGAGUUCUACAGUCCGACGAUCGAGCGGAACUGAACACACACAGGCCUGCCCCUUAUGAGAUCCAGCAGGAGUUCUGGUCUUAGCACGAAAAGGAUUGGGGCGGGCAAGGGGGACAGCCAGCGGAGAUGAGGGGAGCUGGCGCAACAGAGGAUUGAGCAUCA
B9: chr17:75827259:75827360:-|3pUTR|ENSG00000092929|unk|FALSE|unique (ssRNA)
RNA: GGGAGUUCUACAGUCCGACGAUCGGACAGUUUGGCUGCUGUGUCUGCUGCGCACGCCCCCUCCCCGGACAGCACCUGCCACCUAGAAACUUUCUUAGCAAAAAAAUUAAUAAAAACAAAUCCAUUGUCCUCUUAAAAUAUGCCCAACAGAGGAUUGAGCAUCA
B10: chr3:167305642:167305950:-|CDS|ENSG00000169064|control|control|control (ssRNA)
RNA: GGGAGUUCUACAGUCCGACGAUCAAAGUCUGAUGAUUCCUGUGUAUCACUUGAAAGCAAGGACACUUUGCUAGGUAGAGAUUUAGAAAAAGCUCCCAUUGAGGAGAAAUUAUCUCAAGACAUCAAAGAAUCCUUGGAAUUGAGCAACAGAGGAUUGAGCAUCA
B11: chr4:75800632:75800752:+|CDS|ENSG00000138768|unk|total|mutant (ssRNA)
RNA: GGGAGUUCUACAGUCCGACGAUCAAACAACUGAUUGAGAAGAGGAUUGGCAAAGAGAAUUUCACCGAGAAACCCGGAUUUAUCCGCAAACAUGAGUUGUAUUCCAGAGCAUCUCAGAAACCCCAGCCAAACUUUCCCAGUCCACAACAGAGGAUUGAGCAUCA
B12: chr10:89738052:89738153:+|CDS|ENSG00000138182|unk|FALSE|bound_elsewhere (ssRNA)
RNA: GGGAGUUCUACAGUCCGACGAUCCUGGAACAACAAAUUGAAAAAUUGCAGGCAGAAGUAAAAGGCUAUAAGGAUGAAAACAAUAGACUAAAGGAGAAGGAGCAUAAAAACCAAGAUGACCUACUAAAAGAAAAAGAAACUCUUCAACAGAGGAUUGAGCAUCA
B13: chr10:74120044:74120145:+|3pUTR|ENSG00000035403|msi1|total|mutant (ssRNA)
RNA: GGGAGUUCUACAGUCCGACGAUCAAAAAAAAUCCCUGAAUGAUGAUCCGAGACAUCACCGCUAAAAAACUACAUUUAUAAGCCCGGAUUUGUUAUAUGCAAAUAUUUUCUGCCUCUUCUUUUGUUCUGUUUAAAACAAUAAAACAACAGAGGAUUGAGCAUCA
B14: chr4:75577918:75578020:-|3pUTR|ENSG00000138769|unk|FALSE|unique (ssRNA)
RNA: GGGAGUUCUACAGUCCGACGAUCGGUUGUUUAGGGAACCAGAAUUUGUGAGUUUUUUUUUUUUUUUUGCCUUAACUAAUUAAUAGUGUGUUGCUUUUUUUCCAAAGCCAUUGACUAGAACUUAGCUGAAGAAUUUAACUAGAACAACAGAGGAUUGAGCAUCA
B15: chr6:13358100:13358202:-|3pUTR|ENSG00000145990|unk|total|mutant (ssRNA)
RNA: GGGAGUUCUACAGUCCGACGAUCAGUAAACAGAGUCUAUAUUUUCUAUAUAAUGCCGACCGUCAAACACCGCUUAUAAAUUACCGGAGGUUUUGGUUUUCUUUUUUAUUAUUAAAGGAAAAAAAGAAGAAAAAAAAAGACAAUCAACAGAGGAUUGAGCAUCA
B16: chr3:27418507:27418620:-|CDS|ENSG00000033867|unk|total|mutant (ssRNA)
RNA: GGGAGUUCUACAGUCCGACGAUCUGAUGCCGCUUAUAAAGCAAAAGACAGAAAUGACCUCUUAUCUGGAAUUGAUGAAUUUUCCGAUCAAGUAACUGUCCUACCUCCAGGAGAGUGGGAUCCUUCUAUACGCACCGAACCACCCAACAGAGGAUUGAGCAUCA
B17: ENSG00000198856:stop:overlap|stop_codon|ENSG00000198856|stop_codon|NA|stop_codon (ssRNA)
RNA: GGGAGUUCUACAGUCCGACGAUCUGAGUUUUUUCAUGGCUAGAGUAUUCAUGAGAAUGAAACUGCCGGGCUAUCUGAUGGGUUAGAGUGCCUUUGAGAAGAAAUCAGUGGAUACUGGAUUUGCUCCUGUCAAUGAAGUUUUAACAACAGAGGAUUGAGCAUCA
B18: chr1:67413009:67413110:-|3pUTR|ENSG00000142864|unk|FALSE|unique (ssRNA)
RNA: GGGAGUUCUACAGUCCGACGAUCCUGAAUUUUAUCUGUUUUAAAAAUGAACUUCUCCCGCUACACAGAAGUAACAAAUAUGGUAGUCAGUUUUGUAUUUAGAAAUGUAUUGGUAGCAGGGAUGUUUUCAUAAUUUUCAGAGAUCAACAGAGGAUUGAGCAUCA
B19: chr10:71816642:71816777:-|3pUTR|ENSG00000197746|msi1_unk|FALSE|overlapping (ssRNA)
RNA: GGGAGUUCUACAGUCCGACGAUCUUGUUUGGGGUUCUGUGGGUUUGGGUGGGAAGAGGGCCAUCUGCCUGAAUGUAACCUGCUAGCUCUCCGAAGGCCCUGCGGGCCUGGCUUGUGUGAGCGUGUGGACAGUGGUGGCCGCGCCAACAGAGGAUUGAGCAUCA
B20: chr3:138622260:138622368:+|CDS|ENSG00000158234|unk|total|mutant (ssRNA)
RNA: GGGAGUUCUACAGUCCGACGAUCAUCCGUGGGCAAAGAAACAUUCUAUGUUGGAGCUGCAAAGACAAAAGCGACCAUAAAUACCGACGCUAUCAGUGGUUUUGCUUAUGAAUAUACUCUGGAAAUUAAUGGGAAAAGUCUCAACAACAGAGGAUUGAGCAUCA
B21: chrY:12776687:12776788:+|CDS|ENSG00000114374|msi1|FALSE|unique (ssRNA)
RNA: GGGAGUUCUACAGUCCGACGAUCGUUUUUGAUGGUGACAAAAACAGCAUUAAUUGUGCAAGACAAGAAGCCAUUCGAAUGGUUAGAGUAUUAACUGUUAUAAAAGAGUACAUUAAUGAAUGUGACAGUGAUUAUCACAAGGAACAACAGAGGAUUGAGCAUCA
B22: chr18:2804133:2804242:+|3pUTR|ENSG00000101596|unk|FALSE|unique (ssRNA)
RNA: GGGAGUUCUACAGUCCGACGAUCGGUUAAAGAGAAAUGACUUUUUAGGAACUAGACUUGAACGUAUAAUUAAUAUGUGGAACUAGUUUGCUUUUAUAAUUCAUUGUAUCAAGAAGGAGUCAUGUUUUAAAUCCAAGGCAUUGACAACAGAGGAUUGAGCAUCA

The other results are listed elsewhere or left out.

The target in the test is MSI1 full-length (mouse, UniProt Q61474 1-362). Put plainly: nsRBNS (natural sequence RNA bind-n-seq); RBNS binding buffer (assumed for nsRBNS): 25 mM Tris pH 7.5, 150 mM KCl, 3 mM MgCl2, 0.01% Triton X-100, 500 ug/ml BSA, 20 U/ml SUPERase-In, 4 C; UNK is unkempt and MSI1 is Musashi-1; names of the RNAs are library labels; protein concentration not given here; high values mean tight binding.
Chain of UniProt Q61474 (Q61474 whole entry): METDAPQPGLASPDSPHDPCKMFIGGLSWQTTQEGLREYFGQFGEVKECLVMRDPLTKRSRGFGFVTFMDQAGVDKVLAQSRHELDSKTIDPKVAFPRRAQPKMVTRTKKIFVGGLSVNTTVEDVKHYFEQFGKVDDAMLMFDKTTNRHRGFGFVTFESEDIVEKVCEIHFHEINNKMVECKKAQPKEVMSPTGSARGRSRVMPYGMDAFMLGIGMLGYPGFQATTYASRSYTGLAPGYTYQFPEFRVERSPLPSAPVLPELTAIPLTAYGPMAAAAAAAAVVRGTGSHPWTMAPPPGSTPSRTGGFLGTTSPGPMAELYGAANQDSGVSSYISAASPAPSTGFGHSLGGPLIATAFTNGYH
As to B1, the binding signal worked out at 0.543 enrichment R.

B2 showed a binding signal of 0.397 enrichment R.

With B3, the binding signal was found to be 1.15 enrichment R.

In the case of B4, the binding signal turned out to be 4.6 enrichment R.

The molecule B5 showed a binding signal of 9.62 enrichment R.

With B6, the binding signal is 0.359 enrichment R.

As to B7, the binding signal came out at 5.23 enrichment R.

B8: the binding signal was 14.3 enrichment R.

Molecule B9 returned a binding signal of 1.83 enrichment R.

In the case of B10, the binding signal was 0.336 enrichment R.

Take B11: the binding signal came to 0.541 enrichment R.

With B12, the binding signal came to 0.617 enrichment R.

In turn, B13 returned a binding signal of 0.643 enrichment R.

In turn, B14 gave a binding signal of 7.32 enrichment R.

B15 returned a binding signal of 1.9 enrichment R.

Molecule B16 showed a binding signal of 0.339 enrichment R.

B17 returned a binding signal of 16.4 enrichment R.

The molecule B18 had a binding signal of 41.4 enrichment R.

Regarding B19, the binding signal turned out to be 0.578 enrichment R.

B20 had a binding signal of 0.271 enrichment R.

For B21, the binding signal was 0.746 enrichment R.

Regarding B22, the binding signal amounted to 1.24 enrichment R.

The values are drawn from publication PMC12136788.
